The other results are listed elsewhere or left out.

The assay has as its system PF3D7_0420300 AP2 domain 1 (GST-tagged). The assay is described as follows: gcPBM binding intensity (ln(normalized median fluorescence intensity)); higher = stronger DNA binding. In outline:
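In this array assay, P. falciparum DNA-binding domains with a GST tag, expressed in E. coli, were applied for 1 h to primer-extended double-stranded 36-bp intergenic genomic probes and negative controls on an Agilent 4 × 180k array. Bound protein was visualised with Alexa488 anti-GST antibody at 488 nm. Binding intensity is the highest Masliner-normalised natural-log median intensity across replicate spots of either probe orientation.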
For “AATGACATTCTTACACGTACAAAATAAAAAATAAAA [XGTACX_site6932]”, the “gcPBM binding intensity (ln)” value worked out at 9.2. Then “TATATATTATATTCATGTACGTAAAAATTTTGAATA [XGTACX_site6734]”, with 9.09; and “ATTTATTTTATAATATATAAATGATATATCTTATTA [CACACA_negctrl_site66]”, with 8.99; and “CCATATGATATATATTGTACATTATATATTATTTCT [XGTACX_site1697]”, with 9.37. Then “TATGTTGTTTATTTAGTGCATATTTAAATATTATAA [GTGCAC_site9601]”, with 9.33; and “TAATATATAAAAAGATGTACTTTTGCAAGTTCCTTT [XGTACX_site8519]”, with 9. Then “GGACTTTATAAAAATGGTACACGCAATTCTATAATC [XGTACX_site6515]”, with 9.18; and “ATATATATATATGTATGTACGTATGTATGTATGAAT [XGTACX_site4857]”, with 9.55; and “GGTACATACAAACACACACACAAAAAAAAAAAAATA [CACACA_site1577]”, with 9.91. With “TATTGTATAAAAATAACATGCAATCCTTATACTGCT [TGCATGCA_site345]”, the “gcPBM binding intensity (ln)” value came to 9.16.

“TGTACAGTAAATACAACACACATTTGTATAAATATA [CACACA_site4705]”: the “gcPBM binding intensity (ln)” value turned out to be 9.59. The figure for “TCTAATTTAAAATACACACACATATCTATAATATAT [CACACA_site7029]” is 9.72; for “GTATAAAAATTTAGGAGTACAATATATTTATAATAT [XGTACX_site2127]” it is 9.27. The figure for “GTAATAAAAAATTAATGTACTTTATATAATATATTA [XGTACX_site5935]” is 9; for “TTTTTGTATTCTCCGGACTACATTATGTTGTAAATG [CACACA_negctrl_site691]” it is 9.3; for “TTTTCTTTCTTGTTTCGTATATTATAAAAAAAAAAG [CACACA_negctrl_site854]” it is 8.96.

For the sequence “TATTTGGGTATTTTTACACACATTAAAATATATATA [CACACA_site5800]”, the “gcPBM binding intensity (ln)” value is 9.33.

Consider “GTATTTTGCATAAATGCATGTAAATATATACCTACC [TGCATGCA_site957]”, for which the “gcPBM binding intensity (ln)” value was 9.1. As for “ATAATTCCATAAAATAGACACACGAATGTATAATAT [CACACA_site477]”, the “gcPBM binding intensity (ln)” value was 9.6. The figure for “ACATATGAATATAATACACACTTGTATTCTTAATAT [CACACA_site5085]” is 9.45; for CAGTTGTTAATTTGTGTGCACCAAATATTATACATA it is 9.4.

“TATTTGTAAAGACATGCATGGTACTTTTAAAACATA [TGCATGCA_site7]”: the “gcPBM binding intensity (ln)” value came out at 8.98. Then “TGTAGATAAAATAAACGTACGTATTGATTTTTTTCA [XGTACX_site1610]”, with 8.97; and “TGGTAATACCCATACACACACACATACACATATATA [CACACA_site8877]”, with 10.1; and “TTAATATTTGTTCTGATCCTTTTATTCAACTTTTTT [CACACA_negctrl_site536]”, with 9.35. Then “TATTTATAACATTGTACACACAAAGAAATAATATTA [CACACA_site7422]”, with 9.56; and “ACGTATGTATATTACACACATACATATTATTCACTA [CACACA_site204]”, with 9.54; and “ATAATATTTTATATAGTGCATTTGCTCATTATATAT [GTGCAC_site9528]”, with 9.25. Then “CATATATAACATATAACACACATACTTAGTATTACA [CACACA_site5674]”, with 9.63; and “ATGATAAACATGGATACACACATATATATTACATAT [CACACA_site1576]”, with 9.68. “ACATATATATACTATCGATTAATAAATTTGTTTTTT [CACACA_negctrl_site881]”: the “gcPBM binding intensity (ln)” value came to 9.36. The figure for “TGAGTATATATAAATACACACCAAATGTTAATATAT [CACACA_site5022]” is 9.43. Take “AGGTTAATCGAAATTGCATGTGACGAAAAATCAAAA [TGCATGCA_site666]”: the “gcPBM binding intensity (ln)” value came to 9.12. Consider “CCCTTAAAATATAAATGTACAAAATTATTTGTATGT [XGTACX_site6164]”, for which the “gcPBM binding intensity (ln)” value amounted to 9.09. The figure for “GATTATATATACAAAAGTACATTATAAAAATTTCAT [XGTACX_site4223]” is 9.07; for “AGAAAAGAGAGAAAAACATGCACATGATATTATAAA [TGCATGCA_site120]” it is 9.19. The figure for “GTGAATATTAAAAAATGTACACAATTATATGTATAT [XGTACX_site4834]” is 9.24. The figure for “TTCTTTTAATTACGAGTGCATACCATATGACATTAT [GTGCAC_site9819]” is 9.19; for “ATAAACATCTAGTGCTGTACACAATTTGATTTTTTT [XGTACX_site3110]” it is 9.17. As to “CAAATACATGGACACACACACATATACAGATATATA [CACACA_site5854]”, the “gcPBM binding intensity (ln)” value turned out to be 10. The figure for “TTTTTTTTTTTTTTCTGTACTTAAAAAGGGGGAGAA [XGTACX_site3799]” is 9.4. Then “CAAACATGTTCAAATTGTACAATAGAAAATATATAT [XGTACX_site1557]”, with 9.32. With “TTGAAGTTTGATTGTAGTACGAATTGGTAGTTTTTT [XGTACX_site6854]”, the “gcPBM binding intensity (ln)” value turned out to be 9.4. Then “GGAAGAATATATAGGACACACATACAATAATAAATA [CACACA_site6124]”, with 9.75; and “TTTTTTTTTTTTTTTTTTTTTTGTGAAACTAAGTAA [CACACA_negctrl_site273]”, with 8.31. The figure for “TTTTTTTTTTTTTTTTTGCAATATATTTTAAAAAAG [CACACA_negctrl_site25]” is 8.15. The figure for “AACTTCTTTTTTATAACACACAAAATATAAATACAA [CACACA_site4313]” is 9.46.

On to “TTTTATATCTAGTTTATATTTCTTAAATAAATAAAT [GTGCAC_negctrl_site245]”, for which the “gcPBM binding intensity (ln)” value was 8.9. Then “CAAATTAAATATTATGCATGTACCAAACATCCTACC [TGCATGCA_site35]”, with 9.33. With “AACATATAAATGATATGTACACACATTTATATATAT [XGTACX_site7364]”, the “gcPBM binding intensity (ln)” value was found to be 9.49. Then “TAATACAAAAAGAAAAGTACATGTTAATTATTATTT [XGTACX_site2196]”, with 9.23. Then “TTTAATATGTATTTTTTTTTTTTTTTTTTTTTTTTT [XGTACX_negctrl_site440]”, with 9. Then “TATAACAGGAATTATATATATATATATATATATTAT [CACACA_negctrl_site911]”, with 9.07; and “CTTTTTTTAGTTAGGTGTACAATTTGTTATTATTAG [XGTACX_site1507]”, with 9.43; and “TTTTTTTTTTTTTTTTGTACATATTTCTTATAAGTG [XGTACX_site6459]”, with 8.77. With “AAAAGAGAAACATTTACACACAAATATAGATATATG [CACACA_site1027]”, the “gcPBM binding intensity (ln)” value worked out at 9.73.

(Values after the supplement of paper PMC11417369.)
